Source: PubChem BioAssay AID540317 (National Center for Advancing Translational Sciences (NCATS), 2011)
Hit rate of the full screen: of about 390,000 compounds, about 2,200 (0.56%) were called active. This list was built around the results that the source calls inconclusive (neither active nor inactive); the mix of calls is not that of the screen. Calls follow the shape of the dose curve; as a rule, active = well fitted inhibition curve with a large enough effect; inconclusive = small, poorly fitted or top-dose-only effect; inactive = no such curve, though single readings can be large or run the other way. Where the call is inconclusive, the potency comes from a doubtful curve fit.

Target: Chromobox protein homolog 1 (Homo sapiens) (UniProt P83916)
UniProt P83916, sequence (P83916 whole entry, looked up): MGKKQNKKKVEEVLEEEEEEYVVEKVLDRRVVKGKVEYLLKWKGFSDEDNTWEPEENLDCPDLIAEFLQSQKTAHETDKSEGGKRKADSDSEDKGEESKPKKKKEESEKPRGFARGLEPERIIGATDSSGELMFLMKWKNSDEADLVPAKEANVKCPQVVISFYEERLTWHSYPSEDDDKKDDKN
Assay: HTS for Inhibitors of HP1-beta Chromodomain Interactions with Methylated Histone Tails; also: nearly all actives have a fitted effect of over 70% in size
Details: AlphaScreen HP1-beta / biotin-H3K9me3 peptide binding; series mostly up to 114 µM
Summary of the method: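 Compound inhibition of the preformed complex between 50 nM HP1-beta and 50 nM biotinylated H3K9me3 peptide was read by AlphaScreen. Buffer was PBS pH 7.4 with 0.01% Tween-20. Incubations ran 30 min at room temperature, with 10 ug/mL donor/acceptor beads.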
Potency is read from the fitted curve at half-maximal effect; tags tell the direction and shape of the fitted curve.

SMILES | Potency
CC1(C)Cc2ccccc2C(N/N=C/c2ccc([N+](=O)[O-])cc2)=N1 | inconclusive: 7.94 µM [inhibitor, partial curve, poor fit]
Cc1cc(C)cc(NC(=S)Nc2cccc3cnccc23)c1 | inconclusive: 39.8 µM [inhibitor, partial curve]
CCOn1c(=O)c(=O)n(O)c2ccccc21 | inconclusive: 89.1 µM [inhibitor, single point]
CC(=O)Nc1sc(N/N=C\c2ccccc2)nc1-c1cccs1 | active: 50.1 µM
COC(=O)Nc1nn(Cc2ccccc2F)cc1Br | inactive
Cc1ccc(N=Nc2cc(C)ccc2O)c(C)c1 | inconclusive: 8.91 µM [inhibitor, full curve]
CC(C)c1cc2c(c(O)c1O)[C@@]13CCCC(C)(C)C1CC2OC3=O (some centres undefined) | inconclusive: 22.4 µM [inhibitor, full curve]
C=CCn1c(C)cc(C(=O)COC(=O)C2CC(=O)N(Cc3ccccc3)C2)c1C (centres undefined) | inconclusive: 25.1 µM [inhibitor, single point]
CCCCN1C2=C(C(=O)CCC2)C(c2ccc(Cl)c(Cl)c2)C2=C1c1ccccc1C2=O (centres undefined) | inconclusive: 11.2 µM [inhibitor, full curve]
Cc1ccc(C(=O)NCC(=O)OCc2cc(=O)n3nc(C4CC4)sc3n2)cc1 | inactive
Cc1ccc(S(=O)(=O)Nc2ccc3nc(-c4cccn4C)[nH]c3c2)cc1 | active: 44.7 µM
CCOc1ccc(NC(=O)CN2CCN(c3ccc(F)cc3)CC2)cc1 | inactive
COc1cc(OC)cc(C(=O)NCCN2CCOCC2)c1 | inconclusive: 50.1 µM [inhibitor, partial curve]
O=C(Cn1cc(S(=O)(=O)N2CCN(c3ccccc3F)CC2)c2ccccc2c1=O)NCCCN1CCCCCC1 | inconclusive: 70.8 µM [inhibitor, partial curve, poor fit]
CC(=O)N1CCN(c2ccc(NC(=O)c3cccc(OCc4ccccc4)c3)cc2)CC1 | inactive
COc1cc(-c2nc3ccc(Cl)cn3c2Nc2ccc3c(c2)OCO3)ccc1O | inconclusive: 20 µM [inhibitor, full curve]
S=C(Cc1cccnc1)N1CCOCC1 | inconclusive: 17.8 µM [inhibitor, full curve, poor fit]
CCOc1cccc(C(=O)Nc2ccc(N(CC)CC)cc2)c1 | inconclusive: 17.8 µM [inhibitor, full curve]
O=C(C[C@H]1C[C@H](C(=O)N2CCOCC2)[C@@]2(CCC3CCCC3)c3[nH]c4cc(-c5ccco5)ccc4c3CCN2C1=O)NCCc1ccccn1 | inconclusive: 39.8 µM [inhibitor, partial curve]
CCc1ccccc1NC(=O)c1cc2sc(Cl)cc2n1CC | inactive
COc1ccc(-c2csc(=Nc3ccccc3)n2CCO)cc1 | inconclusive: 44.7 µM [inhibitor, partial curve]
NS(=O)(=O)c1ccc(N=Nc2c(O)c(C(=O)O)cc3ccccc23)cc1 | inconclusive: 50.1 µM [inhibitor, partial curve]
Cc1ccc(NC(=O)Cn2sc3nc(C)cc(C)c3c2=O)c(Cl)c1 | inconclusive: 3.55 µM [inhibitor, full curve, poor fit]

SMILES | Potency
CCCc1cc(=S)n2c([nH]c3ccccc32)c1C#N | inconclusive: 28.2 µM [inhibitor, full curve]
COc1cccc2cc(C(=O)NCCc3c[nH]c4ccccc34)c(=O)oc12 | inconclusive: 39.8 µM [inhibitor, full curve]
CN(C)c1cccc(C(=O)NNC(=S)NC2CC3CCC2C3)c1 (centres undefined) | inconclusive: 44.7 µM [inhibitor, partial curve]
Cn1c(=O)c2c(nc(SCC(=O)NCc3ccc4c(c3)OCO4)n2Cc2ccc(F)cc2)n(C)c1=O | inconclusive: 5.01 µM [inhibitor, full curve]
Cc1ccc(-c2nc3cnccn3c2Nc2ccccc2)o1 | inconclusive: 44.7 µM [inhibitor, partial curve, poor fit]
COc1ccc(CN2CCN(C(=O)c3ccco3)CC2)cc1OCc1ccccc1 | inconclusive: 31.6 µM [inhibitor, partial curve, poor fit]
CCOc1cccc(OCCOCCN(C)C)c1 | inconclusive: 5.01 µM [inhibitor, partial curve, poor fit]
CCOc1ccc(NC(=O)Cn2sc3nc(C)cc(C)c3c2=O)cc1 | active: 5.62 µM
CCn1cc([N+](=O)[O-])c(C(=O)N2N=C(c3ccc(OC)cc3OC)CC2c2ccccc2O)n1 (centres undefined) | inconclusive: 39.8 µM [inhibitor, single point]
C/C(=N\NC(=O)c1ccc(Br)cc1)c1ccccc1 | inactive
CC1CN(C(=O)CCc2cc(C(C)(C)C)c(O)c(C(C)(C)C)c2)CC(C)O1 (centres undefined) | inactive
Cc1ccc(COc2cccc3cc(-c4noc(-c5ccc(C)cc5)n4)c(=O)oc23)cc1 | inactive
Cc1csc(N/N=C/c2ccc(O)c([N+](=O)[O-])c2)n1 | inconclusive: 12.6 µM [inhibitor, single point]
COc1ccc(C(=O)Nc2nc(-c3ccc([N+](=O)[O-])cc3)c(-c3ccccc3)s2)cc1 | inconclusive: 39.8 µM [inhibitor, single point]
C=C(CN(C)C)C(=O)c1cc(OC)c(OC)cc1OC | inconclusive: 17.8 µM [inhibitor, full curve, poor fit]
O=C1C=CC(=Nc2ccc3c(c2)Cc2cc(F)ccc2-3)O1 | inconclusive: 70.8 µM [inhibitor, partial curve, poor fit]
CCOc1ccc(NC(=O)CSc2nnc(Cc3cccn3C)n2-c2ccc(F)cc2)cc1 | inconclusive: 39.8 µM [inhibitor, partial curve, poor fit]
CC1(c2nnc(Cc3ccccc3)o2)CC(c2ccccc2Br)=NO1 (centres undefined) | inactive
COc1ccccc1NC(=O)c1ccc(NC(=O)c2cc3c(s2)CCC3)cc1 | inconclusive: 28.2 µM [inhibitor, single point]
CCN(CC)Cc1cc(C(C)(C)C)cc(N2CCOCC2)c1O | inconclusive: 89.1 µM [inhibitor, single point]
CC1CCN(CC(=O)Nc2ccc(Br)cc2[N+](=O)[O-])CC1 | inconclusive: 20 µM [inhibitor, full curve]
O=S(=O)(c1ccc(F)cc1)N1CCC(N2CCCC2)CC1 | inconclusive: 31.6 µM [inhibitor, partial curve]
O=C(NCc1cccnc1)C1CCN(Cc2cc3ccccc3n2Cc2ccccc2)CC1 | inactive

SMILES | Potency
CC(C)c1ccc(NC(=O)CN2C=NS(=O)(=O)c3ccccc32)cc1 | inactive
O=C(Nc1ccc(C(F)(F)F)cc1)C1=NN(C2CCS(=O)(=O)C2)C(=O)CC1 (centres undefined) | inactive
O=C(NCCOc1ccccc1)C(=O)c1c[nH]c2ccccc12 | inactive
CC(=O)C1=C(O)C(=O)N(c2ccc(Br)cn2)C1c1ccc(Br)cc1 (centres undefined) | inactive
Cc1c(C(=O)O)sc2nc(/C=C/c3ccccc3OC(F)F)[nH]c(=O)c12 | inconclusive: 70.8 µM [inhibitor, single point]
O=C(NNc1c2ccccc2nc2ccccc12)c1ccc(O)cc1O | inconclusive: 25.1 µM [inhibitor, full curve, poor fit]
O=c1c2c3c(sc2n(CCN2CCCC2)c(=O)n1Cc1ccco1)CCCCC3 | inconclusive: 50.1 µM [inhibitor, partial curve, poor fit]
CCc1nnc(NC(=O)CSc2nnc(C(C)NC(=O)c3ccccc3F)n2C)s1 (centres undefined) | inactive
CCc1nc(SCC(=O)O)c(C#N)c2c1CCCC2 | inactive
O=C(Nc1ccc(-n2cccc2)cc1)C1CC1 | inconclusive: 44.7 µM [inhibitor, partial curve, poor fit]
Cc1cc(Br)ccc1OCCCCN1CCCCC1 | inconclusive: 44.7 µM [inhibitor, partial curve, poor fit]
Cc1ccc(-c2cnc(N)n2C)cc1C | inactive
Cc1cc(-n2c(C)cc(C(=S)N3CCOCC3)c2C)ccc1Br | inconclusive: 15.8 µM [inhibitor, full curve, poor fit]
NNC(=O)c1ccc(N2CCc3ccccc32)c([N+](=O)[O-])c1 | inconclusive: 56.2 µM [inhibitor, single point]
O=S(=O)(Nc1ccc(N2CCCCC2)cc1)c1ccc(F)cc1 | inconclusive: 17.8 µM [inhibitor, partial curve, poor fit]
COc1ccc(NC(=S)Nn2cnnc2)c(OC)c1 | inconclusive: 31.6 µM [inhibitor, partial curve]
CCN1CCN(C(=O)NC2CCCCC2)CC1 | inconclusive: 25.1 µM [inhibitor, partial curve]
C=CCn1c(-c2oc3nc(-c4ccccc4)cc(-c4ccccc4)c3c2N)n[nH]c1=S | inconclusive: 79.4 µM [inhibitor, partial curve]
CC1CCN(C2CCN(S(=O)(=O)c3ccc(F)cc3)CC2)CC1 | inconclusive: 15.8 µM [inhibitor, full curve]
Cc1nc2nc(C(F)(F)F)[nH]n2c(=O)c1Cc1ccccc1 | inactive
Cc1ccc(C(C)C)c(OCC(=O)NNCC(=O)Nc2cccc(F)c2)c1 | inactive
COc1ccc(Cl)cc1NS(=O)(=O)c1c(C)[nH]c(=O)[nH]c1=O | inconclusive: 44.7 µM [inhibitor, single point]
CCCc1nc2sc3ccccc3c(=O)c2c(=O)n1Cc1ccc(OC)cc1 | inactive
